The other results are listed elsewhere or left out. Single values are uncertain, as repeats are few or missing.
Tests used:
Assay in all cases: cell count relative to DMSO control; melanoma cells; higher = more viable cells
Settings in all cases: library dose: standard library concentration; 72 h; first compound 2 µM
[1] = test system: G361
[2] = test system: IPC-298
[3] = test system: IST-MEL1
[4] = test system: LB2518-MEL
[5] = test system: LOXIMVI
[6] = test system: MEL-HO
[7] = test system: MZ2-MEL
[8] = test system: MeWo
[9] = test system: RPMI7951
[10] = test system: RVH-421
[11] = test system: SkMel28
[12] = test system: SkMel2
[13] = test system: SkMel30
[14] = test system: SkMel5
[15] = test system: UACC257
[16] = test system: UACC62
[17] = test system: WM115
[18] = test system: WM1716
[19] = test system: WM3526
[20] = test system: WM1745
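Also: cells treated in 1,536-well plates, then fixed and DAPI-stained, with nuclei counted from automated high-throughput microscope images.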

Row | SMILES | cell count [1] [%] | cell count [2] [%] | cell count [3] [%] | cell count [4] [%] | cell count [5] [%] | cell count [6] [%] | cell count [7] [%] | cell count [8] [%] | cell count [9] [%] | cell count [10] [%] | cell count [11] [%] | cell count [12] [%] | cell count [13] [%] | cell count [14] [%] | cell count [15] [%] | cell count [16] [%] | cell count [17] [%] | cell count [18] [%] | cell count [19] [%] | cell count [20] [%]
1 | Cn1sc(=O)n(Cc2ccccc2)c1=O + COC(=O)c1sccc1S(=O)(=O)Nc1ccc(Nc2ccccc2)cc1OC [GSK0660] (partner dose 5 µM) | 98.6 | 96.2 | 102 | 110 | 110 | 91.2 | 96 | 86.1 | 89.5 | 129 | 77.3 | 100 | 103 | 65.9 | 93.1 | 76.7 | 105 | 108 | 93.8 | 
2 | Cn1sc(=O)n(Cc2ccccc2)c1=O + COc1ccc2c(c1)CCC1C2CCC2(C)C(NCCCCCCN3C(=O)C=CC3=O)CCC12 [U73122] (partner dose 2 µM) | 81.6 | 98.6 | 82.3 | 98.4 | 81.5 | 99.2 | 88.9 | 63.3 | 27 | 31.3 | 57.5 | 92.7 | 76.1 | 82.9 | 86.5 | 37.2 | 67.3 | 51.8 | 71.8 | 
3 | CCCCCCCCCCCCCCCCCCOP(=O)([O-])OC1CC[N+](C)(C)CC1 [Perifosine] + Cn1cc(/C=C2\C(=O)Nc3cccnc32)c2ccccc21 [GW441756] (partner dose 2 µM) | 79.9 | 77.3 | 94.8 | 119 | 88.1 | 77.4 | 80.7 | 96.3 | 55.2 | 71.6 | 78.9 | 104 | 100 | 73.2 | 77.5 | 65.1 | 93.9 | 130 | 86 | 
4 | C[C@@H](N)c1ccc(C(=O)Nc2ccnc3[nH]ccc23)cc1 + O=C(O)C(=O)Nc1sc2c(c1C(=O)O)CCNC2 [TCS401] (partner dose 8.33333 µM) | 106 | 90.2 | 109 | 130 | 83.6 | 87.6 | 60 | 88.4 | 75.1 | 90.2 | 113 | 104 | 83.9 | 53.7 | 41.2 | 93.3 | 100 | 83.3 | 93.1 | 
5 | C[C@@H](N)c1ccc(C(=O)Nc2ccnc3[nH]ccc23)cc1 + O=S(=O)(c1ccccc1)N(CC(F)(F)F)c1ccc(C(O)(C(F)(F)F)C(F)(F)F)cc1 [T0901317] (partner dose 7 µM) | 65.7 | 70.4 | 87.2 | 95.2 | 68.8 | 57.4 | 61.3 | 59.9 | 59.5 | 115 | 86.4 | 84.6 | 72.1 | 49.4 | 42 | 59.4 | 102 | 40.1 | 81.7 | 
6 | Cn1sc(=O)n(Cc2ccccc2)c1=O + O=C1NC(=O)/C(=C/c2ccc(-c3ccc(F)cc3O)o2)S1 [AS252424] (partner dose 5 µM) | 80.1 | 90.6 | 90.1 | 87.2 | 93.6 | 63.7 | 98.3 | 82.7 | 85.8 | 96.5 | 76 | 84.4 | 82.1 | 65.5 | 101 | 75.6 | 81.2 | 93.9 | 77.4 | 
7 | CCCCCCCCCCCCCCCCCCOP(=O)([O-])OC1CC[N+](C)(C)CC1 [Perifosine] + Cc1cc([N+](=O)[O-])ccc1NS(=O)(=O)c1cc(Cl)ccc1Cl [FH535] (partner dose 5 µM) | 54.9 | 51.6 | 65.1 | 89.2 | 67.3 | 51.4 | 69.5 | 73 | 27.8 | 71.6 | 56.8 | 79.8 | 87 | 65.2 | 70.7 | 84.5 | 76.9 | 77.2 | 86.2 | 
8 | Cn1sc(=O)n(Cc2ccccc2)c1=O + COc1ccc(C2=N[C@@H](c3ccc(Cl)cc3)[C@@H](c3ccc(Cl)cc3)N2C(=O)N2CCNC(=O)C2)c(OC(C)C)c1 [Nutlin-3] (partner dose 0.5 µM) | 75.3 | 103 | 104 | 70.4 | 53.3 | 77.6 | 101 | 144 | 102 | 86.9 | 61.3 | 85.2 | 91.9 | 86.7 | 90 | 67 | 99.5 | 91.2 | 102 | 82.1
9 | Cn1sc(=O)n(Cc2ccccc2)c1=O + O=C(O)[C@@H]1[O][Sb](=[O])([O][Sb]2(=[O])[O][C@H]([C@H](O)CO)[C@H](O)[C@H](C(=O)O)[O]2)[O][C@H]([C@H](O)CO)[C@@H]1O [stibogluconate] (partner dose 10 µM) | 80.1 | 73.5 | 92.4 |  | 92.9 | 87.8 |  | 82 | 67.2 | 78 | 66.2 | 83.4 | 70.5 | 65.8 | 108 | 73.2 | 123 | 96.8 | 85.8 | 88.1
10 | CCCCCCCCCCCCCCCCCCOP(=O)([O-])OC1CC[N+](C)(C)CC1 [Perifosine] + N#Cc1c(O)c2c(-c3ccc(-c4ccccc4O)cc3)csc2[nH]c1=O [A769662] (partner dose 10 µM) | 109 | 97.2 | 79.6 | 88.9 | 111 | 90.9 | 104 | 86.2 | 47.6 | 90.9 | 93.9 | 89.9 | 96.7 | 106 | 111 | 77.5 | 108 | 89.5 | 77.9 | 

From the supplement of paper PMC4604168 (melanoma cell lines)
